Measurements from patent US12280121B2, “Immunoconjugates and methods” (Immunome, Inc., priority 2021, dated 2025).

Tests used:
[1] = target: T1, Mouse ROR1-His (Mus musculus, UniProt Q9Z139); experiment: Biochemical binding to purified protein measured by SPR, Mouse ROR1-His
T1 construct: His
Protocol: (§1) An initial assessment of antibody developability was performed by AC-SINS to evaluate the potential for self-interaction (FIG. 30). […] TABLES 2-5 provide this antibody characterization data in comparison to the known ROR-1 binding antibody UC961 including tabled results for biochemical binding to purified proteins and measured by SPR (TABLES 2-5), cellular binding to ROR-1 positive cell lines JeKo-1 and MDA-MB-468 (EC50) (TABLE 6), and cellular internalization (% internalized) (TABLE 7).

[2] = target: T2, ROR-1 on JeKo-1 cells (Homo sapiens, UniProt Q01973); experiment: Cell binding saturation assay (flow cytometry), JeKo-1; conditions: FIG. 27, MFI by flow cytometry
T2 construct: endogenous in cells; host or cells: JeKo-1
Source text: FIG. 27 illustrates a measurement of cell binding saturation data for the anti-ROR-1 antibodies generated by the methods described herein. […] Cells were washed, stained with secondary antibody and cell binding saturation was detected by flow cytometry and reported as mean fluorescent intensity (MFI).
A cell binding saturation assay was developed to evaluate how well the anti_ROR-1 antibodies developed in Example 28 bound to endogenously expressed extracellular ROR-1 protein on cell lines. […] Briefly, two ROR-1 positive cell lines, JeKo-1 and MDA-MB-468, were incubated in a titration series concentration of each antibody construct. Cells were then washed and subjected to secondary antibody staining and detection by flow cytometry. Mean fluorescence (MFI) was determined by analysis on cytometer software. […] (See FIG. 27).

[3] = target: T3, Hu/Cy/Rh ROR1-His (Homo sapiens, UniProt Q01973); experiment: Biochemical binding to purified protein measured by SPR, Hu/Cy/Rh ROR1-His; parameters: species or system human/cyno/rhesus
T3 construct: His
Protocol: as §1

T1 sequence (Q9Z139 30-937): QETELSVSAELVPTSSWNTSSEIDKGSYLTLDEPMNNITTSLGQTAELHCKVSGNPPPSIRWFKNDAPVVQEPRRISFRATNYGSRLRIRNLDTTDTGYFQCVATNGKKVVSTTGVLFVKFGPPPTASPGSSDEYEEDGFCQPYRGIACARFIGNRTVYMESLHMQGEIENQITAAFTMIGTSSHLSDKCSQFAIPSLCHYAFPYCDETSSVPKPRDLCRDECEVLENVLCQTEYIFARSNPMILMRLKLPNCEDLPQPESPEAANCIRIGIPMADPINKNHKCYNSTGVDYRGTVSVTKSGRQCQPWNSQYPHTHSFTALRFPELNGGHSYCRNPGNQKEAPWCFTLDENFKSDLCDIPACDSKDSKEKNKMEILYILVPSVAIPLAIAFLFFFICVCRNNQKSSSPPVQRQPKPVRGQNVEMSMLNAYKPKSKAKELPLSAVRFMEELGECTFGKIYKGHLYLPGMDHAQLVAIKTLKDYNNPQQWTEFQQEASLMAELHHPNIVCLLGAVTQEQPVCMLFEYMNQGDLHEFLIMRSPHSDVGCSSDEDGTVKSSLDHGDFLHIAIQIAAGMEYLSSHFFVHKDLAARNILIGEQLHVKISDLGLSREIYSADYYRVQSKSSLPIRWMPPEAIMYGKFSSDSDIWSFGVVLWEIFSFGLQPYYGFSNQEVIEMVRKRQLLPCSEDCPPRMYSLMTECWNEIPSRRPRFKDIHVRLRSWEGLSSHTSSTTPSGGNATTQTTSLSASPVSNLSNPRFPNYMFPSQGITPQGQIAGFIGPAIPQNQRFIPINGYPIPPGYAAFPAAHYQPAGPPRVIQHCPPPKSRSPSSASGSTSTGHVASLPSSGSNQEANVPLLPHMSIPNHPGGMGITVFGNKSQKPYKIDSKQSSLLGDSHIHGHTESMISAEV

Rmax (RU) [1]: 73.5 RU
ka (M − 1 s − 1) [1]: 2.92E+04 M − 1 s − 1
kd (s − 1) [1]: 1.32E−03 s − 1
concentration needed to achieve binding saturation compared to UC961 [2]: improved
Rmax (RU) [3]: 341.6 RU
ka (M − 1 s − 1) [3]: 2.70E+05 M − 1 s − 1
kd (s − 1) [3]: 2.95E−03 s − 1
B1: ATX-P-885: anti-ROR-1 monoclonal antibody; heavy chain SEQ ID NO:21, light chain SEQ ID NO:28 (antibody)
heavy: QVQLQQWGAGLLKPSETLSLTCAVYGGSFSGYYWSWIRQPPGKGLEWIGEINHSGSTNYNPSLKSRVTISVDTSKNQFSLKLSSVTAADTAVYYCAREGVYEDYWGQGTLVTVSSASTKGPSVFPLAPSSKSTSGGTAALGCLVKDYFPEPVTVSWNSGALTSGVHTFPAVLQSSGLYSLSSVVTVPSSSLGTQTYICNVNHKPSNTKVDKRV[omitted - human IgG1 Fc]
light: EIVLTQSPATLSLSPGERATLSCRASQSVSNYLAWYQQKPGQAPRLLIYDAYNRATGIPARFSGSGSGTDFTLTISSLEPEDFAVYYCQQRSNWPLTFGQGTRLEIKRTVAAPSVFIFPPSDEQLKSGTASVVCLLNNFYPREAKVQWKVDNALQSGNSQESVTEQDSKDSTYSLSSTLTLSKADYEKHKVYACEVTHQGLSSPVTKSFNRGEC
cell binding saturation compared to UC961 [2]: comparable to the cell binding saturation for UC961
